US20110319597A1 (CAPHALON AUSTRALIA, published 2011)

Target: recombinant human TNFα (human, UniProt P01375 fragment)
Assay: cell-based or functional assay

UniProt P01375, sequence (P01375 77-233 limits assumed): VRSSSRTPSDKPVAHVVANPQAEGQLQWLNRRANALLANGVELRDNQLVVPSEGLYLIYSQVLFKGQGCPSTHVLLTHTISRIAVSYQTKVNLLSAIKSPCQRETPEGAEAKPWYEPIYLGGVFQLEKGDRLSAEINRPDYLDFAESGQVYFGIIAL

Row | Standardized EC50, L929 neutralization assay (5-point) | Binder
1 | 9.47 mg/L | TNFα dAb Fc variant L11K (Fc fusion, name in Kabat numbering) DIQMTQSPSSKSASVGDRVTITCRASQAIDSYLHWYQQKPGKAPKLLIYSASNLETGVPSRFSGSGSGTDFTLTISSLLPEDFATYYCQQVVWRPFTFGQGTKVEIKRV[human IgG1 Fc with changes left out]
2 | 1.07 mg/L | TNFα dAb Fc variant S12Y (Fc fusion, name in Kabat numbering) DIQMTQSPSSLYASVGDRVTITCRASQAIDSYLHWYQQKPGKAPKLLIYSASNLETGVPSRFSGSGSGTDFTLTISSLLPEDFATYYCQQVVWRPFTFGQGTKVEIKRV[human IgG1 Fc with changes left out]
3 | 2.4 mg/L | TNFα dAb Fc variant V15A (Fc fusion, name in Kabat numbering) DIQMTQSPSSLSASAGDRVTITCRASQAIDSYLHWYQQKPGKAPKLLIYSASNLETGVPSRFSGSGSGTDFTLTISSLLPEDFATYYCQQVVWRPFTFGQGTKVEIKRV[human IgG1 Fc with changes left out]
4 | 0.909 mg/L | TNFα dAb Fc variant D17S (Fc fusion, name in Kabat numbering) DIQMTQSPSSLSASVGSRVTITCRASQAIDSYLHWYQQKPGKAPKLLIYSASNLETGVPSRFSGSGSGTDFTLTISSLLPEDFATYYCQQVVWRPFTFGQGTKVEIKRV[human IgG1 Fc with changes left out]
5 | 0.681 mg/L | TNFα dAb Fc variant S14A (Fc fusion, name in Kabat numbering) DIQMTQSPSSLSAAVGDRVTITCRASQAIDSYLHWYQQKPGKAPKLLIYSASNLETGVPSRFSGSGSGTDFTLTISSLLPEDFATYYCQQVVWRPFTFGQGTKVEIKRV[human IgG1 Fc with changes left out]
6 | 0.796 mg/L | TNFα dAb Fc variant S12A (Fc fusion, name in Kabat numbering) DIQMTQSPSSLAASVGDRVTITCRASQAIDSYLHWYQQKPGKAPKLLIYSASNLETGVPSRFSGSGSGTDFTLTISSLLPEDFATYYCQQVVWRPFTFGQGTKVEIKRV[human IgG1 Fc with changes left out]
7 | 1.76 mg/L | TNFα dAb Fc variant S12D (Fc fusion, name in Kabat numbering) DIQMTQSPSSLDASVGDRVTITCRASQAIDSYLHWYQQKPGKAPKLLIYSASNLETGVPSRFSGSGSGTDFTLTISSLLPEDFATYYCQQVVWRPFTFGQGTKVEIKRV[human IgG1 Fc with changes left out]
8 | 1.97 mg/L | TNFα dAb Fc variant G16Y (Fc fusion, name in Kabat numbering) DIQMTQSPSSLSASVYDRVTITCRASQAIDSYLHWYQQKPGKAPKLLIYSASNLETGVPSRFSGSGSGTDFTLTISSLLPEDFATYYCQQVVWRPFTFGQGTKVEIKRV[human IgG1 Fc with changes left out]
9 | 10.5 mg/L | TNFα dAb Fc variant D17H (Fc fusion, name in Kabat numbering) DIQMTQSPSSLSASVGHRVTITCRASQAIDSYLHWYQQKPGKAPKLLIYSASNLETGVPSRFSGSGSGTDFTLTISSLLPEDFATYYCQQVVWRPFTFGQGTKVEIKRV[human IgG1 Fc with changes left out]
10 | 1.92 mg/L | TNFα dAb Fc variant S14Y (Fc fusion, name in Kabat numbering) DIQMTQSPSSLSAYVGDRVTITCRASQAIDSYLHWYQQKPGKAPKLLIYSASNLETGVPSRFSGSGSGTDFTLTISSLLPEDFATYYCQQVVWRPFTFGQGTKVEIKRV[human IgG1 Fc with changes left out]
11 | 1.76 mg/L | TNFα dAb Fc variant S14K (Fc fusion, name in Kabat numbering) DIQMTQSPSSLSAKVGDRVTITCRASQAIDSYLHWYQQKPGKAPKLLIYSASNLETGVPSRFSGSGSGTDFTLTISSLLPEDFATYYCQQVVWRPFTFGQGTKVEIKRV[human IgG1 Fc with changes left out]
12 | 2.26 mg/L | TNFα dAb Fc variant S14D (Fc fusion, name in Kabat numbering) DIQMTQSPSSLSADVGDRVTITCRASQAIDSYLHWYQQKPGKAPKLLIYSASNLETGVPSRFSGSGSGTDFTLTISSLLPEDFATYYCQQVVWRPFTFGQGTKVEIKRV[human IgG1 Fc with changes left out]
13 | 3.21 mg/L | TNFα dAb Fc variant R18A (Fc fusion, name in Kabat numbering) DIQMTQSPSSLSASVGDAVTITCRASQAIDSYLHWYQQKPGKAPKLLIYSASNLETGVPSRFSGSGSGTDFTLTISSLLPEDFATYYCQQVVWRPFTFGQGTKVEIKRV[human IgG1 Fc with changes left out]
14 | 1.44 mg/L | TNFα dAb Fc variant S12H (Fc fusion, name in Kabat numbering) DIQMTQSPSSLHASVGDRVTITCRASQAIDSYLHWYQQKPGKAPKLLIYSASNLETGVPSRFSGSGSGTDFTLTISSLLPEDFATYYCQQVVWRPFTFGQGTKVEIKRV[human IgG1 Fc with changes left out]
15 | 0.822 mg/L | TNFα dAb Fc variant S12Q (Fc fusion, name in Kabat numbering) DIQMTQSPSSLQASVGDRVTITCRASQAIDSYLHWYQQKPGKAPKLLIYSASNLETGVPSRFSGSGSGTDFTLTISSLLPEDFATYYCQQVVWRPFTFGQGTKVEIKRV[human IgG1 Fc with changes left out]
16 | 0.841 mg/L | TNFα dAb Fc variant S14Q (Fc fusion, name in Kabat numbering) DIQMTQSPSSLSAQVGDRVTITCRASQAIDSYLHWYQQKPGKAPKLLIYSASNLETGVPSRFSGSGSGTDFTLTISSLLPEDFATYYCQQVVWRPFTFGQGTKVEIKRV[human IgG1 Fc with changes left out]
17 | 8.84 mg/L | TNFα dAb Fc variant D17K (Fc fusion, name in Kabat numbering) DIQMTQSPSSLSASVGKRVTITCRASQAIDSYLHWYQQKPGKAPKLLIYSASNLETGVPSRFSGSGSGTDFTLTISSLLPEDFATYYCQQVVWRPFTFGQGTKVEIKRV[human IgG1 Fc with changes left out]
18 | 4130 mg/L | TNFα dAb Fc variant S14H (Fc fusion, name in Kabat numbering) DIQMTQSPSSLSAHVGDRVTITCRASQAIDSYLHWYQQKPGKAPKLLIYSASNLETGVPSRFSGSGSGTDFTLTISSLLPEDFATYYCQQVVWRPFTFGQGTKVEIKRV[human IgG1 Fc with changes left out]
19 | 9.96 mg/L | TNFα dAb Fc variant S14P (Fc fusion, name in Kabat numbering) DIQMTQSPSSLSAPVGDRVTITCRASQAIDSYLHWYQQKPGKAPKLLIYSASNLETGVPSRFSGSGSGTDFTLTISSLLPEDFATYYCQQVVWRPFTFGQGTKVEIKRV[human IgG1 Fc with changes left out]
20 | 668 mg/L | TNFα dAb Fc variant D17P (Fc fusion, name in Kabat numbering) DIQMTQSPSSLSASVGPRVTITCRASQAIDSYLHWYQQKPGKAPKLLIYSASNLETGVPSRFSGSGSGTDFTLTISSLLPEDFATYYCQQVVWRPFTFGQGTKVEIKRV[human IgG1 Fc with changes left out]
21 | 0.863 mg/L | TNFα dAb Fc variant D17Q (Fc fusion, name in Kabat numbering) DIQMTQSPSSLSASVGQRVTITCRASQAIDSYLHWYQQKPGKAPKLLIYSASNLETGVPSRFSGSGSGTDFTLTISSLLPEDFATYYCQQVVWRPFTFGQGTKVEIKRV[human IgG1 Fc with changes left out]
22 | 4.67 mg/L | TNFα dAb Fc variant D17A (Fc fusion, name in Kabat numbering) DIQMTQSPSSLSASVGARVTITCRASQAIDSYLHWYQQKPGKAPKLLIYSASNLETGVPSRFSGSGSGTDFTLTISSLLPEDFATYYCQQVVWRPFTFGQGTKVEIKRV[human IgG1 Fc with changes left out]
23 | 2.66 mg/L | TNFα dAb Fc variant D17L (Fc fusion, name in Kabat numbering) DIQMTQSPSSLSASVGLRVTITCRASQAIDSYLHWYQQKPGKAPKLLIYSASNLETGVPSRFSGSGSGTDFTLTISSLLPEDFATYYCQQVVWRPFTFGQGTKVEIKRV[human IgG1 Fc with changes left out]
24 | 1.24 mg/L | TNFα dAb Fc variant V15P (Fc fusion, name in Kabat numbering) DIQMTQSPSSLSASPGDRVTITCRASQAIDSYLHWYQQKPGKAPKLLIYSASNLETGVPSRFSGSGSGTDFTLTISSLLPEDFATYYCQQVVWRPFTFGQGTKVEIKRV[human IgG1 Fc with changes left out]
25 | 1.35 mg/L | TNFα dAb Fc variant S12P (Fc fusion, name in Kabat numbering) DIQMTQSPSSLPASVGDRVTITCRASQAIDSYLHWYQQKPGKAPKLLIYSASNLETGVPSRFSGSGSGTDFTLTISSLLPEDFATYYCQQVVWRPFTFGQGTKVEIKRV[human IgG1 Fc with changes left out]
26 | 2.67 mg/L | TNFα dAb Fc variant S14L (Fc fusion, name in Kabat numbering) DIQMTQSPSSLSALVGDRVTITCRASQAIDSYLHWYQQKPGKAPKLLIYSASNLETGVPSRFSGSGSGTDFTLTISSLLPEDFATYYCQQVVWRPFTFGQGTKVEIKRV[human IgG1 Fc with changes left out]
27 | 1.05 mg/L | TNFα dAb Fc variant S12K (Fc fusion, name in Kabat numbering) DIQMTQSPSSLKASVGDRVTITCRASQAIDSYLHWYQQKPGKAPKLLIYSASNLETGVPSRFSGSGSGTDFTLTISSLLPEDFATYYCQQVVWRPFTFGQGTKVEIKRV[human IgG1 Fc with changes left out]
28 | 0.851 mg/L | TNFα dAb Fc variant R18S (Fc fusion, name in Kabat numbering) DIQMTQSPSSLSASVGDSVTITCRASQAIDSYLHWYQQKPGKAPKLLIYSASNLETGVPSRFSGSGSGTDFTLTISSLLPEDFATYYCQQVVWRPFTFGQGTKVEIKRV[human IgG1 Fc with changes left out]
29 | 0.252 mg/L | TNFα dAb Fc variant S12L (Fc fusion, name in Kabat numbering) DIQMTQSPSSLLASVGDRVTITCRASQAIDSYLHWYQQKPGKAPKLLIYSASNLETGVPSRFSGSGSGTDFTLTISSLLPEDFATYYCQQVVWRPFTFGQGTKVEIKRV[human IgG1 Fc with changes left out]
